Reference: PubChem BioAssay AID1508623 (National Center for Advancing Translational Sciences (NCATS), 2021)
Out of some 48,000 compounds screened, about 450 (0.94%) were called active. Another 19% or so got no clear call; they are omitted. Calls follow the shape of the dose curve; as a rule, active = well fitted inhibition curve with a large enough effect; inconclusive = small, poorly fitted or top-dose-only effect; inactive = no such curve, though single readings can be large or run the other way. The list shows a part of the results.

Assay: Primary qHTS for Identification of Small Molecule Inhibitors of Huntingtin Promoter Activity; also: nearly all actives have a fitted effect of over 50% in size
Details: HEK293 HTT promoter firefly luciferase reporter (activity 0% = vehicle and -100% = no light), 24 h; series mostly up to 57.5 µM; activity change, negative = inhibition: at the top concentration
Summary of the method: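 Firefly luciferase signal from promoter-reporter HEK293 cells was scaled between vehicle (0%) and zero RLU (-100%). Compounds were tested at final concentrations of up to 57.5 uM over 24 h at 37 degrees C. PTC124 at 50 uM final served as control inhibitor.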

Activity change, negative = inhibition, inactive:
CCCn1c2ccccc2c2cnn(CC(=O)NCCc3cc(OC)ccc3OC)c(=O)c21 -12.4%
CCOC(=O)c1cccc(NC(=O)NCc2ccc3c(c2)CCN3C(=O)CC)c1 -22.6%
COc1ccc(N2CCN(C(=O)c3nn(C)c4c3CSc3ccccc3-4)CC2)cc1 -14.7%
CCc1ccc(C(=O)c2cn(CC(=O)Nc3ccc(OC)c(Cl)c3)c3nc(C)ccc3c2=O)cc1 3.09%
CC1=C(C(=O)Nc2cccc(C(F)(F)F)c2)C(c2ccccn2)n2ncnc2N1 (configuration not stated) 0.169%
CCCN(C(=O)NCc1noc2ccc(C)cc12)c1ccc(Cl)c(Cl)c1 -5.72%
CCC(=O)Nc1ccccc1-c1nc2ccccc2n(CC(=O)c2ccc(Br)cc2)c1=O -10.1%
Cc1ccc(Cl)cc1NC(=O)Cn1cc(S(=O)(=O)Cc2ccccc2Cl)c2ccccc21 -15.5%
Cc1cc(C)cc(OCC(=O)NCC2(N3CCOCC3)CCCCC2)c1 -16.4%
COc1ccc([C@@H]2Sc3ccccc3N(CCN(C)C)C(=O)[C@@H]2OC(C)=O)cc1 -5.29%
O=C(Cn1c(SCCOc2ccccc2Cl)nc2ccccc21)N1CCCCC1 -12.2%
CCCc1cc(=O)[nH]c(SCc2nc(-c3ccc(OC)cc3)no2)n1 5.29%
Cc1cn([C@H]2C[C@H](N=[N+]=[N-])[C@@H](CO)O2)c(=O)[nH]c1=O -6.98%
COc1ccc(CC(=O)NCCc2csc(-c3cccc(F)c3)n2)cc1OC -32.3%
N#Cc1ccccc1Cn1c(=O)n(-c2ccc(F)c(Cl)c2)c(=O)c2sccc21 -14.9%
Cc1ccc(C)c(NC(=O)Cn2c(=O)n(Cc3ccco3)c(=O)c3ccc(C(=O)NC4CCCC4)cc32)c1 -10%
CCOC(=O)c1ccccc1NC(=O)c1sc2ncn(CC)c(=O)c2c1C -4.09%
O=C(CSc1nc(O)c(C/C=C/c2ccccc2)c(=O)[nH]1)Nc1cccc(F)c1 -9.4%
CC(C)(C)c1ccc(S(=O)(=O)N2CCN(C(=O)c3cc(-c4ccc(Br)cc4)n[nH]3)CC2)cc1 -1.62%
CCOc1ccc(NC(=O)c2noc3c2CSc2ccccc2-3)cc1 1.34%
CCOCCc1nn2c(=O)cc(COC(=O)c3ccco3)nc2s1 -6.55%
COc1cc(-c2noc(-c3ccc(N4CCCCC4)c([N+](=O)[O-])c3)n2)cc(OC)c1OC -11.2%
COc1cccc(CNC(=O)c2nnc(Cc3ccc(Cl)cc3)o2)c1 -3.76%
CCN1CCN(CCCNC(=O)c2ccc3c(c2)sc2nc(-c4ccc(C)cc4)cn23)CC1 -14.3%
COc1ccc(-c2cc(C)no2)cc1S(=O)(=O)N1CC(C)Oc2ccccc21 (configuration not stated) -11.8%
COc1ccc(-n2c(SCC(=O)NCc3ccccc3)nc3n[nH]c(C)c3c2=N)cc1 -14.4%
CCCn1c(=O)c2sccc2n2c(CCCC(=O)Nc3ccccc3F)nnc12 -10.9%
O=C1CC(c2cccc(F)c2)c2c(n3ncnc3[nH]c2=O)N1 (configuration not stated) -15.8%
COc1cccc(N2CCN(C(=O)Cn3ncc4c(=O)oc5ccccc5c43)CC2)c1 -3.97%
CCOC(=O)Cn1c(=O)n(C2CCCCC2)c2nc(-c3cccc(C)c3)nc(C(N)=O)c21 -1.94%
COc1cccc(CN2CCc3nc(N4CCN(C)CC4)ncc3C2)c1 -15.2%
CCCNC(C)C(=O)Nc1c(C)csc1C(=O)OC (configuration not stated) 34.3%
COc1ccc(-n2nc(C(=O)N3CCN(c4cccc(C(F)(F)F)c4)CC3)c3c4ccccc4n(C)c3c2=O)cc1Cl -3.01%
COc1cccc(N2CCN(C(=O)Cn3ncc4c5ccccc5n(C)c4c3=O)CC2)c1 0%
Cc1cccc(-c2noc(-c3cc(-c4ccc(F)cc4)n[nH]3)n2)c1 -29.1%
Cc1oc2ncn(C)c(=O)c2c1C(=O)NCc1ccccc1 -20.6%
CNCc1ccc(-c2[nH]c3cc(F)cc4c3c2CCNC4=O)cc1 5.52%
O=C(c1ccccc1Cl)N1CCN(CCc2ccccn2)CC1 -12.4%
COc1ccc2cc3cc(C(=O)Nc4ccccc4C)oc3nc2c1 -17.6%
COc1cccc(C(=O)Nc2ccccc2-c2nnc(-c3ccc(C(C)(C)C)cc3)o2)c1 -15.5%
CCCOC(=O)c1ccc(Nc2nc3ccccc3nc2-n2nc(C)cc2C)cc1 -0.321%
C[C@@H](NC(=O)CN(c1ccccc1)S(=O)(=O)N(C)C)c1ccccc1 -3.11%
Cc1ccc(NC(=O)Nc2ccc3nc(N4CCN(C)CC4)cc(C)c3c2)cc1C -13%
Cc1ccccc1NC(=O)c1ccc(F)c(S(=O)(=O)NC2CCCC2)c1 -37.2%
CCN1CCN(C(=O)c2ccc3c(c2)N(Cc2ccccc2F)C(=O)c2ccccc2S3(=O)=O)CC1 -10.3%
COc1cccc(N(C)C(=S)Oc2ccc3c(c2)CCCC3)n1
COc1cc(NS(=O)(=O)c2ccc(NC(=O)c3ccc(C(C)=O)cc3)cc2)nc(OC)n1 -2.87%
CCOC(=O)c1cccc(NC(=O)N2CC(CC)Oc3ccccc32)c1 (configuration not stated) -7.14%
Cc1cccc(-n2ncc(C(=O)NCc3ccco3)c2C2CCN(C(=O)OC(C)(C)C)CC2)c1 -19.5%
CCc1nn(CC(=O)NCCN(CC)CC)c(=O)c2cc3occc3n12 -5.83%
O=C(CSc1ncc2c(n1)-c1ccccc1N(Cc1ccc(F)cc1)S2(=O)=O)NCc1ccccc1 -15.5%
Cc1cccc(CNC(=O)CCCN2C(=O)COc3ccc(C)cc32)c1 -11.7%
CCn1c(=O)c2cc(C(=O)N(C)c3cc(Cl)c(OC)cc3OC)sc2c2ccccc21 -3.09%
Cc1cn2c(=O)cc(COC(=O)c3cccc(NC(=O)COc4ccc(Cl)cc4)c3)nc2s1 -16.4%
COC(=O)c1c(NC(=O)COc2ccccc2Cl)sc2c1CCC(C(C)(C)C)C2 (configuration not stated) 0.708%
Cc1ccc(CCNC(=O)c2cc3sccc3n2Cc2ccc(F)cc2)cc1 -22.2%
COC(=O)c1ccc(Cl)cc1NC(=O)N1CCC(CN2CCCC2)CC1 -17%
CC(C)(O)CCc1ccc(OCc2cc(-c3cccc(OC(F)F)c3)c3ncccc3c2)cc1 32.4%
Cc1ccc(C(=O)c2cn(Cc3ccccc3F)c3cc4c(cc3c2=O)OCO4)cc1 8.33%
N#C/C(=C\c1ccc(Br)cc1)c1nc(-c2cc3cc(Br)ccc3oc2=O)cs1 -5.36%
COc1cc(/C=C(\C#N)c2nc3ccc(C)cc3[nH]2)ccc1OC(C)C 11.3%
CC1(C)O[C@@H]2C[C@H]3[C@@H]4CCC5=CC(=O)C=C[C@]5(C)[C@@H]4[C@@H](O)C[C@]3(C)[C@]2(C(=O)CO)O1 -4.12%
